Results published in the antibiotic and cytotoxicity screens of Wong et al. (2023).
The list shows a part of the results.

Key:
HSkMC = human skeletal muscle cells; assay: cytotoxicity call (relative viability < 0.9); conditions: 10 µM
HepG2 = assay: cytotoxicity call (relative viability < 0.9); conditions: 10 µM
S. aureus RN4220 = assay: growth inhibition call (relative growth <= 0.2); conditions: 50 µM

SMILES | cytotoxicity call (HSkMC) | cytotoxicity call (HepG2) | growth inhibition call (S. aureus RN4220)
C[C@H](CO)N1C[C@H](C)[C@H](CN(C)Cc2ccc(Oc3ccccc3)cc2)Oc2ccc(NC(=O)Nc3ccc4c(c3)OCO4)cc2C1=O | inactive | inactive | inactive
O=C(N[C@@H](c1ccc(F)cc1)c1ccc2ccccc2n1)C1CCN(CCOc2ccc(F)cc2)CC1 | inactive | active | active
C[C@@H]1CN([C@H](C)CO)C(=O)c2c(c3ccccc3n2C)-c2ccccc2CO[C@H]1CN(C)C(=O)c1ccc(F)cc1 | inactive | inactive | inactive
C[C@@H]1CN([C@@H](C)CO)C(=O)c2c(c3ccccc3n2C)-c2ccccc2CO[C@H]1CN(C)C(=O)CCC(F)(F)F | inactive | inactive | inactive
C[C@H](CO)N1C[C@H](C)[C@H](CN(C)Cc2ccccc2)Oc2c(NC(=O)c3cnccn3)cccc2C1=O | inactive | inactive | inactive
COc1ccc(NC(=O)N(C)C[C@H]2OCCCC[C@@H](C)Oc3ccc(NC(=O)Nc4cccc5ccccc45)cc3C(=O)N([C@@H](C)CO)C[C@H]2C)cc1 | inactive | inactive | inactive
C[C@@H]1CN([C@H](C)CO)C(=O)c2cc(C#Cc3cccnc3)cnc2O[C@@H]1CN(C)S(=O)(=O)c1ccccc1F | inactive | inactive | inactive
Cc1noc(C)c1NC(=O)N(C)C[C@H]1OCCCC[C@H](C)Oc2ccc(NC(=O)Nc3ccc(F)cc3)cc2C(=O)N([C@@H](C)CO)C[C@@H]1C | inactive | inactive | inactive
Cc1noc(C)c1S(=O)(=O)Nc1ccc2c(c1)C(=O)N([C@@H](C)CO)C[C@@H](C)[C@H](CN(C)S(=O)(=O)c1cn(C)cn1)OCCCC[C@H](C)O2 | inactive | inactive | inactive
CC(C)NC(=O)Nc1ccc2c(c1)C(=O)N([C@H](C)CO)C[C@H](C)[C@H](CN(C)S(C)(=O)=O)OCCCC[C@@H](C)O2 | inactive | inactive | inactive
C[C@@H]1CN([C@H](C)CO)C(=O)c2cc(NC(=O)Cc3ccccc3)ccc2O[C@@H](C)CCCCO[C@@H]1CN(C)C(=O)c1ccccc1 | inactive | inactive | inactive
COc1cccc(OC)c1O | inactive | inactive | inactive
CCCCCCCCCC(=O)N[C@H]1[C@H](Oc2c3cc4cc2Oc2ccc(cc2Cl)[C@@H](O[C@@H]2O[C@H](CO)[C@@H](O)[C@H](O)[C@H]2NC(C)=O)[C@@H]2NC(=O)[C@H](NC(=O)[C@@H]4NC(=O)[C@H]4NC(=O)[C@@H](Cc5ccc(c(Cl)c5)O3)NC(=O)[C@@H](N)c3ccc(O)c(c3)Oc3cc(O)cc4c3)c3ccc(O)c(c3)-c3c(O[C@H]4O[C@H](CO)[C@@H](O)[C@H](O)[C@@H]4O)cc(O)cc3[C@H](C(=O)O)NC2=O)O[C@H](CO)[C@@H](O)[C@@H]1O | inactive | inactive | active
CC(=O)N1[C@H](CO)[C@@H](c2ccccc2)[C@@H]1CNC(=O)CN1CCOCC1 | inactive | inactive | inactive
Cc1noc(C)c1NC(=O)Nc1ccc2c(c1)CC(=O)N([C@H](C)CO)C[C@@H](C)[C@H](CN(C)Cc1ccc(-c3ccccc3)cc1)O2 | inactive | inactive | inactive
COc1cccc2c1C(=O)c1c(O)c3c(c(O)c1C2=O)CC(O)(C(=O)CO)CC3OC1CC(N)C(O)C(C)O1.Cl (stereo unspecified) | inactive | active | inactive

SMILES | cytotoxicity call (HSkMC) | cytotoxicity call (HepG2) | growth inhibition call (S. aureus RN4220)
C[C@@H]1CCCCO[C@@H](CN(C)C(=O)CCC(F)(F)F)[C@@H](C)CN([C@H](C)CO)C(=O)c2cc(NS(=O)(=O)c3ccc(F)cc3)ccc2O1 | inactive | inactive | inactive
COc1ccc(S(=O)(=O)N(C)C[C@@H]2OCCCC[C@@H](C)Oc3ccc(NC(=O)Nc4ccc(C(F)(F)F)cc4)cc3C(=O)N([C@H](C)CO)C[C@@H]2C)cc1 | inactive | inactive | inactive
CCCN(C)C[C@@H]1OCCCC[C@H](C)Oc2ccc(NC(=O)NC3CCCCC3)cc2C(=O)N([C@@H](C)CO)C[C@@H]1C | inactive | inactive | inactive
C[C@H](CO)N1C[C@H](C)[C@@H](CN(C)S(=O)(=O)c2cccs2)OCCCC[C@H](C)Oc2ccc(NC(=O)Nc3ccc(C(F)(F)F)cc3)cc2C1=O | inactive | inactive | inactive
NC(N)=O | inactive | inactive | inactive
CC(=O)OCC(=O)C1(O)CCC2C3CCC4=CC(=O)CCC4(C)C3C(O)CC21C (stereo unspecified) | inactive | inactive | inactive
C[C@@H]1CN([C@H](C)CO)C(=O)c2cc(NC(=O)CCC(F)(F)F)ccc2O[C@@H]1CN(C)Cc1ccc(C(=O)Nc2ccccc2N)cc1 | inactive | inactive | inactive
Cc1ccc(S(=O)(=O)Nc2ccc3c(c2)CC(=O)N([C@@H](C)CO)C[C@H](C)[C@@H](CN(C)C(=O)Nc2cccc4ccccc24)O3)cc1 | inactive | inactive | inactive
COc1ccc(S(=O)(=O)Nc2ccc3c(c2)C(=O)N([C@@H](C)CO)C[C@H](C)[C@@H](CN(C)S(=O)(=O)c2ccc(OC)cc2)O3)cc1 | inactive | inactive | inactive
CC(C)NC(=O)N(C)C[C@H]1OCCCC[C@@H](C)Oc2ccc(NS(C)(=O)=O)cc2C(=O)N([C@H](C)CO)C[C@H]1C | inactive | inactive | inactive
CCC(=O)N[C@@H]1CC[C@@H](CC(=O)OC)O[C@H]1CO | inactive | inactive | inactive
COc1ccc(S(=O)(=O)Nc2ccc3c(c2)C(=O)N([C@@H](C)CO)C[C@@H](C)[C@@H](CN(C)Cc2ccccc2)OCCCC[C@@H](C)O3)cc1 | inactive | inactive | inactive
Cn1c(=O)c2c(nc(SCSc3nc4c(c(=O)n(C)c(=O)n4C)n3C)n2C)n(C)c1=O | inactive | inactive | inactive
COc1cc(C)c(C(=O)Oc2cc(C)c(C(=O)O)c(O)c2C)c(OC)c1C | inactive | inactive | inactive
CC(=O)NC(=O)N[C@H]1CSC[C@@H]1OC(C)=O | inactive | inactive | inactive
CC(C)NC(=O)Nc1ccc2c(c1)C(=O)N([C@H](C)CO)C[C@@H](C)[C@H](CN(C)CC1CCCCC1)OCCCC[C@@H](C)O2 | inactive | inactive | inactive
